These results are taken from the RNAGym collection of RNA variant scans (doi:10.7554/elife.90254).

B1: LINE1-full (parent)
chain: UACGUAGGUGGUUUUCCCCUGAUAGUGCUAAGGGGGCCUGGAAGUUUGGACUGGGCAGAGCUCAACACAGCGUGGCAAAGUGGCUGUGGCUAGACUGCCUCUCUGGAUUCCUCGUCACUCAGCAGGGCAUCUCUGAGAGAAAUGCC

The source gives no read counts; variants with many changes may rest on few reads.

In the data set the parent is B1. As to the kind of experiment: self-cleavage, relative activity (ratio to wild type); higher = more cleavage; in vitro, sequencing; the parent is a self-cleaving ribozyme.
As for UACGUAGGUGGUUUUCCCCUGAUAGUGCUAAGGGGGCCCGGAAGUUUGGACUGGGCAGAGCUCAACACAGCGUGGCAAAGUGGCUGCGGCUAGACUGCCUCUCUGGAUUCCUCGUCACUCAGCAGGGCAUCUCUGAGUGAAAUGCC, the self-cleavage is 0.04.
Take UACGUAGGUGGUUUUCCCCUGAUAGCGCUAUGGGGGCCCGGAAGUCUGGACUGGGCAGAGCUCAACACAGCGUGGCAAAGUGGCUGUGGCUAGGCUGCCUCUCUGGAUUCCUCGUCACACAGCAGGGCAUCUCUGAGAGAAAUGCC: the self-cleavage was 0.
Turning to UACGUAGGUGGUUUUCCCCUGAUAGUGCUAAGGGGGCCUGGAAGUUUGGACUGGGCGGAGCUCAACACAGCGUGGCACAGUGGCUGUGGCUAGAAUGCCUCUCUGGAUUCCUCGUCACCCAGCAGGGCAUCUCUGAGAGAAAUGCC, the self-cleavage came out at 0.08.
Consider UGCGUAGGUGGUUUUCCCCUGAUAGUGCUGAGGGGGCCUGGAAGUUUGGACUGGGCAGAGCUCAACACAGCGUGGCCAAGUGGCUGUGGCUAGACUGCCUCUCUGGAUUCCUCGUCACUCAGCAGGGCAUCUCUGAGAGAAAUGCC, for which the self-cleavage is 0.84.
Under UACGUAGGUGGUUUUCCCCUGAUAGUGCUAAGGGGGCCUGGAAGUUUGGACUGGGUAGAGCUCAACACAGCGUGGCAAAGUGGCUGUGGCUAGACUGCCUCUCUGGAUUCCUCGUCACUCAGCAGGGCACCUCUGAGAGGAAUGCC stands 0.07.
As to UACGUAGGUGGUUAUCCCCUGAUAGUGCUAAGGGGGCCUGGAAGUUUGGACUGGGCAGAGCUCACCACAGCGUGGCAAAGUGGCUGUGGCUAGACUGCCUCUCUGGAUUCCUCGUCACUCAGCGGGGCAUCUCUGAGAGAAAUGCC, the self-cleavage turned out to be 0.06.
Under UACGUAGGUGGUUUUCCCCUGAUAGUGCUAAGGGGGCCUGGAAGUUUGGACUGGGCUGAGCUCAGCACAGCGUGGCAAAGUGGCUGUGGCUAGACUGCCUCUCUGGAUUCCUCGUCACUCUGCAGGGCAUCUCUGAGAGAAAUGCC stands 0; under UACGUAGGGGGUUUUCCCCUGAUAGUGCUAAGGGGCCCUGGAAGUUUGGACUGGGCAGAGCUCAACACAGCGUGGCAAAGUGGCUGUGGCUAGACUGCCUCUCUGGAUUCCUCGUCACUCAGCAGGGCAUCUCUGAGAGAGAUGCC, 0.54.
Regarding UACGUAGGUAGUUUUCCCCUGAAAGUGCUAAGGGGGCCUGGGAGUUUGGACUGGGCAGAGCUCAACACAGCGUGGCAAAGUGGCUGUGGCUAGACAGCCUCUCUGGAUUCCUCGUCACUCAUCAGGGCAUCUCUGAGAGAAAUGCC, the self-cleavage is 0.05.
Under UGCGUAGGUGGUUUUCCCCUGAUAGUGCUAAGGGGGCCUGGAAGUUUGGGCUGGGCAGAGCUCAACACAGCGUGGCAAAGUGGCUGUGGCUAGACUGCCUCUCUGGAUUCCUCGUCACUCAGCAGGGCAUCUCUGAGAGAAGUGCC stands 0.79.
On to UACGUAGGUGGUUUUCCCCUGAUAGUGCUAAGGGGGCCUGGAAGUUUGGACUGGGCAAAGCUCAACACAGCGUGGCAAAGUGGCUGUGGCUAGACUGCCUCUCUGGGAUCUUCGUCACUCAGCAGGGCAUCUCUGAGAGAAAUGCC, for which the self-cleavage was 0.
On to UACGUAGGUGGUAUUCCCCUGAUAGUGCUAAGGGGGCCUGGAAGUUUGGACUGGGCAGAGCCCAACACAGCGUGGCAAAGUGGCUGUGGCUAGACUGCCUCACUGGAUUCCUCGUCACUCAGCAGGGCAUCUCUGAGAGAAAUGCC, for which the self-cleavage came out at 0.02.
Under UGCGUAGGUGGUUUUCCCCUGAUAGUGCUAAGGGGGCCUGGAAGUUUGGACUGGGCAGAGCCCAACACAGCGUGGCACAGUGGCUGUGGCUAGACUGCCUCUCUGGAUUCCUCGCCACUCAGCAGGGCAUCUCUGAGAGAAAUGCC stands 0; under UACGUAGGUGGUUUUCCCCUGAUAGUGCUAAGGGGGCCUGGAAGUUUGGACUGGGCAGAGCUCAACACAGCGUGGCUAAGUGGCUGUGGCUAGACUGCCUCUCUGGAUUCCCCGUCACUCAGUAGGGCAUCUCUGAGAGAAAUGCC, 1.15; under UACGUAGGAGGUUUUCCCCCGAUAGUGCUAAGGGGGCCUGGAAGUUUGGACUGGGCAGAGCUCAACACAGCGUGGCAAAGUGGCUGUGGCUAGACUGCCUCUCUGGAUUCCUCGUCACUCUGCAGGGCAUCUCUGAGAGAAAUGCC, 1.24.
For UACGUAGGUGGUUUUCCCCUGAUAGUGCUAAGGGGGCCUGGGAGUUUAGACUGGGCAGAGCUCAACACAGCGGGGCAAAGUGGCUGUGGCUAGACUGCCUCUCUGGAUUCCUCGUCACUCAGCAGGGCAUCUCUGAGAGAAAUGCC, the self-cleavage turned out to be 1.39.
Take UACAUAGGUGGUUUUCCCCUGAUAGUGCUAAGGGGGCCUGGAAGUUUGGACUGGGCAGAGCUCAACACGGCGUGGCAAAGUGGCUGUGGCUAGACUGCCUCUCUGGAUUCCUCGACACUCAGCAGGGCAUCUCUGAGAGAAAUGCC: the self-cleavage is 0.5.
Next, UACGUAGGUGGUUUUCCCCUGAUAGUGCUAAGGGGGCCUGGGAGUUUGGACUGGGCAGAGCUCAACACAGCGUGGCAAAGUGGCUGAGGCCAGACUGCCUCUCUGGAUUCCUCGUCACUCAGCUGGGCAUCUCUGAGAGAAAUGCC: 0.24; UACGUAGGUGGUUUUCCCCUGAUAGUGCUAAGGGGGCCUGGAAGUUUGGACUGGGCAGAGCUCAACACAGAGUGGCAAAGUGGCUGUGGCUAGACCGCCUCUCUGGAUUCCUCGUCGCUCAGCAGGGCAUCUCUGAGAGAAAUGCC: 0.03; UACGUAGGUGGUUUUCCCCUGACAGUGCUAAGGGUGCCUGGAAGUUUGGACUGAGCAGAGCUCAACACAGCGUGGCAAAGUGGCUGUGGCUAGACUGCCUCUCUGGGUUCCUCGACACUCAGCAGGGCAUCUCUGAGAGAAAUGCC: 0.32.
